PubChem BioAssay AID360 (National Center for Advancing Translational Sciences (NCATS), 2006)
Hit rate of the full screen: of about 48,000 compounds, about 550 (1.1%) were called active. Another 4% or so got no clear call; they are omitted. Rule as the data show it: active = potency below about 15 µM; inconclusive = mostly about 16 µM to 33 µM; inactive = weaker than that. This is one part of the list.

biological target: Lysosomal acid glucosylceramidase (Homo sapiens) (UniProt P04062); test: Glucocerebrosidase; settings: purified enzyme, resorufin glucoside fluorescence (screen aimed at inhibitors), 20 min; series mostly up to 77 µM;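 also: the screen sought inhibitors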
In short: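 Compounds titrated against 0.2 nM normal enzyme, 30 uM resorufin beta-D-glucopyranoside substrate, citrate/phosphate buffer with taurocholate and tween-20, pH 5.9. Reaction ran 20 min at room temperature; fluorescence (Ex 548/Em 600) gave AC50.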
Potency is read from the fitted curve at half-maximal effect.

Chain of UniProt P04062 (P04062 whole entry, looked up): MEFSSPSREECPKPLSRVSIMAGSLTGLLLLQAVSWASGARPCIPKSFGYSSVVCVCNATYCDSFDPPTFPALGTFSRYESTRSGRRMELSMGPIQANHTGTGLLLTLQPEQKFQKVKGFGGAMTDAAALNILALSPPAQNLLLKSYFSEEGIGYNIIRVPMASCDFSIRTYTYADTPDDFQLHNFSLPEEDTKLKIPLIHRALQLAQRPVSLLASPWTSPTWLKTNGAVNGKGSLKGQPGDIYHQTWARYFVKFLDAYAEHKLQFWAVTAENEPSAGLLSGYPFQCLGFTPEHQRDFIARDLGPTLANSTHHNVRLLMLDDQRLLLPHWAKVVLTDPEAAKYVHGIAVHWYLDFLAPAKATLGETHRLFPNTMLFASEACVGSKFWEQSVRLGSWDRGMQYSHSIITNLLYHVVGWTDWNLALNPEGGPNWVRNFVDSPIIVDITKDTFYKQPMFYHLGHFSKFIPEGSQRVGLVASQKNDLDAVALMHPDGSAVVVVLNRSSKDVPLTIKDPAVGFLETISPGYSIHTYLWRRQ

Potency, inactive:
Cc1cccc(N2CCN(S(=O)(=O)c3ccc4c(c3)CCC(=O)N4)CC2C)c1 (configuration not stated) > 76.9 µM
O=c1c2cccc3c2c(nn1CN1CCOCC1)-c1ccccc1-3 > 76.9 µM
Cc1ccc(-n2nnnc2SCC(=O)NCCC2=CCCCC2)c(C)c1 > 76.9 µM
O=C(Cc1c(C(=O)O)[nH]c2ccc(Cl)cc12)Nc1ccc2c(c1)OCCO2 > 76.9 µM
CCCC(=O)NC(Nc1ccc(S(=O)(=O)Nc2ncccn2)cc1)(C(=O)OCC)C(F)(F)F (configuration not stated) > 76.9 µM
CCC(C)(C)NC(=O)C(OC(=O)c1cc2sccc2n1C)c1ccc(OC)cc1 (configuration not stated) > 76.9 µM
Cn1cccc1C(=O)NC(=O)CSc1nc2ccccc2s1 > 76.9 µM
Cn1cccc1C(=S)N1CCOCC1 > 76.9 µM
O=C(COc1ccccc1)Nn1cnc2ccccc21 > 76.9 µM
O=C(NC1CC1)C1CCC(=O)N1C1CCCC1 (configuration not stated) > 76.9 µM
CCCCNC(=O)c1sc2nc(C)cc(COC)c2c1-n1cccc1 > 76.9 µM
CCOC(=O)c1cnc(Nc2nc3ccccc3o2)nc1CSc1nnc(C)s1 > 76.9 µM
CCOc1ccc2nc(SC(C)C(N)=O)[nH]c2c1 (configuration not stated) > 76.9 µM
Cc1ccc(NC(=O)CSc2nnc(-c3ccccc3C)o2)cc1C > 76.9 µM
COc1ccc(NC(C)=O)cc1NC(=O)CN1CCN(CC(=O)Nc2ccccc2Cl)CC1 > 76.9 µM
O=C(O)C1(NS(=O)(=O)c2ccc(F)c(Cl)c2)CCCCC1 > 76.9 µM
Cc1cc(C)n2nc[n+](C)c2n1 > 76.9 µM
COC(=O)c1ccccc1NC(=O)CN(C1CCCCC1)S(C)(=O)=O > 76.9 µM
CCOc1ccc(C(N)=O)cc1OC > 76.9 µM
O=C(NCC1CCC(C(=O)O)CC1)c1cccnc1 (configuration not stated) > 76.9 µM
CCCCN(C(=O)NC(=O)Nc1ccccc1C)S(C)(=O)=O > 76.9 µM
Cc1n[nH]c(C)c1S(=O)(=O)Nc1ccc2c(c1)OCCO2 > 76.9 µM
O=S(=O)(NCc1ccncc1)c1ccc(S(=O)(=O)NCC2CCCO2)cc1 (configuration not stated) > 76.9 µM
O=C1CCC(C(=O)N(Cc2ccco2)C2(C(=O)NC3CCCC3)CCCCC2)N1 (configuration not stated) > 76.9 µM
CC12CC(NC(=O)N1c1ccc(C(=O)N3CCN(c4ccccn4)CC3)cc1)c1ccccc1O2 (configuration not stated) > 76.9 µM
O=S(=O)(Nc1cccc(C(F)(F)F)c1)c1cnc[nH]1 > 76.9 µM
COc1ccc(-c2nc3scc(-c4ccccc4)n3n2)cc1 > 76.9 µM
COC(=O)C1=C(C)N(c2cccc(Cl)c2)C(=O)C1 > 76.9 µM
CC(OC(=O)c1cccs1)C(=O)NCc1ccccc1 (configuration not stated) > 76.9 µM
COc1ccc(NC(=O)c2c(C)oc3c2CCCC3)cc1 > 76.9 µM
COCCn1c(SCC(=O)Nc2cc(C)cc(C)c2)nnc1C(C)C > 76.9 µM
Cc1ccc(N)cc1-n1c(C)ccc1C > 76.9 µM
CCOC(=O)c1cnc(SCC(=O)NCc2cccs2)nc1N > 76.9 µM
CSc1ccc(CN(C)CC(=O)NC(=O)NC(C)(C)C)cc1 > 76.9 µM
Cn1ccnc1Sc1nc2c(c(=O)n(C)c(=O)n2C)n1C > 76.9 µM
CC1CCN(CCCNC(=O)c2cc3sccc3n2C)CC1 > 76.9 µM
CCN1CCCC1CNC(=O)c1ccc2c(=O)n(CCOC)c(=O)[nH]c2c1 (configuration not stated) > 76.9 µM
O=C(COC(=O)c1ccccc1NC(=O)c1ccco1)NCCC1=CCCCC1 > 76.9 µM
O=C(NCc1ccc2c(c1)OCO2)C1CC(=O)N(c2ccc(O)cc2)C1 (configuration not stated) > 76.9 µM
CCOC(=O)c1c(C)c(C(=O)N2CCc3ccccc3C2)c(C)n1CC > 76.9 µM
Cc1ccc(N(C(=O)c2ccc(S(=O)(=O)N3CCOCC3)cc2)C2C=CS(=O)(=O)C2)cc1 (configuration not stated) > 76.9 µM
Cn1c(=O)cc(OCCCC(=O)Nc2ccccn2)c2ccccc21 > 76.9 µM
NC(=O)c1cnn(Cc2ccc(Cl)cc2)c1N > 76.9 µM
O=C(NCCO)c1cccc(S(=O)(=O)N2CCCCC2)c1 > 76.9 µM
COc1ccc(C2C3=C(CCCC3=O)Nc3nc(C(F)(F)F)nn32)cc1OC (configuration not stated) > 76.9 µM
C=CCn1c(=O)[nH]c2cc(C(=O)N3CCN(c4cccc(Cl)c4)CC3)ccc2c1=O
COc1ccccc1N1CCN(C(=O)CSc2nc3ccccc3c(=O)n2CC2CCCO2)CC1 (configuration not stated) > 76.9 µM
O=C(CSc1cc(Cl)ccc1Cl)NCC1CCCO1 (configuration not stated) > 76.9 µM
O=C(Nc1cccc2c1C(=O)NC2=O)c1ccc(S(=O)(=O)N2CCCC2)cc1 > 76.9 µM
COc1ccccc1C1C=C(c2ccc(C)cc2)Nc2nnnn21 (configuration not stated) > 76.9 µM
Cc1ccc(S(=O)(=O)N2CCCSCC2)cc1 > 76.9 µM
Cn1c(=O)n(CCN2CCOCC2)c(=O)c2c1nc1n2CCN1c1ccc(Oc2ccccc2)cc1 > 76.9 µM
CCOC(=O)c1cc(-c2ccccc2)sc1N > 76.9 µM
c1coc(CNc2c3c(nc4ncnn24)CCCC3)c1
O=c1c2c(nc3n1CCCCC3)sc1c(O)cccc12 > 76.9 µM
Cc1cc(-c2ccco2)n(CC(=O)O)n1 > 76.9 µM
CCc1ccc(C(=O)CC2(O)C(=O)N(CN3CCOCC3)c3ccccc32)cc1 (configuration not stated) > 76.9 µM
CCSc1nnc(NC(=O)c2nc(-c3ccccc3)n(-c3ccccc3)n2)s1 > 76.9 µM
COCCn1c(-c2ccccc2)nc(=S)c2c1CC(C)(C)OC2 > 76.9 µM
COCCN(Cc1cc2cccc(C)c2[nH]c1=O)C(=O)c1ccccc1 > 76.9 µM
CCC(=O)Nc1sc2c(c1C(N)=O)CCC2 > 76.9 µM
Cc1c(C(=O)N2CCOCC2)[nH]c2c1C(=O)CC(c1ccc(Cl)cc1)C2 (configuration not stated) > 76.9 µM
CCn1c(CSc2nccn2C)nc2cc(C(=O)O)ccc21 > 76.9 µM
COC(=O)c1cc2ccsc2n1CC(=O)N1CCCc2ccccc21
CCCn1c(=O)c2ccccc2n2c(SCCOc3ccccc3)nnc12 > 76.9 µM
Nc1nnc(COc2cccc(C(F)(F)F)c2)s1 > 76.9 µM
CCOC(=O)Cc1csc(NC(=O)c2ccc(S(=O)(=O)N3CCCCC3)cc2)n1 > 76.9 µM
O=C(CSc1nnc(-c2ccccc2)o1)n1c2c(c3ccccc31)CCCC2 > 76.9 µM
O=C(NC1CCCCC1)C(c1ccco1)N(C(=O)c1csnn1)C1CCCC1 (configuration not stated) > 76.9 µM
O=c1[nH]c2cc3c(cc2cc1CN(CC1CCCO1)S(=O)(=O)c1ccccc1)OCCO3 (configuration not stated) > 76.9 µM
O=C(Cn1cnc2c(oc3ccccc32)c1=O)NCCc1ccccc1 > 76.9 µM
N=c1c(C(=O)NCc2ccc3c(c2)OCO3)cc2c(=O)n3ccccc3nc2n1Cc1cccnc1 > 76.9 µM
CCC(C)(C)NC(=O)C(c1ccco1)N(C(=O)c1csnn1)c1cccc(F)c1 (configuration not stated) > 76.9 µM
Cc1cccc(NC(=O)C2c3ccccc3C(=O)N3CCc4ccccc4C23)n1 (configuration not stated) > 76.9 µM
O=C(Nc1ccccc1C(=O)NCC1CCCO1)c1ccco1 (configuration not stated) > 76.9 µM
Cc1cc(C)c2nc(NC3=NCN(CCN4CCOCC4)CN3)nc(C)c2c1 > 76.9 µM
COc1cccc(C(O)c2cnc(C(C)C)n2C)c1OC (configuration not stated) > 76.9 µM
CCOc1ccc(OCC)c(NC(=O)C2CCN(c3nn4c(=O)cc(C)nc4s3)CC2)c1
CCOC(=O)C1CCCN(CC(=O)Nc2c(C(=O)OC)[nH]c3ccccc23)C1 (configuration not stated) > 76.9 µM
Cc1ccc(Cl)cc1NC(=O)Cn1cccc1 > 76.9 µM
O=C(NCc1ccccn1)c1ccc(/C=N/O)nc1 > 76.9 µM
CC(=O)N1CCc2cc(S(=O)(=O)NCCC(=O)NC3CCN(Cc4ccccc4)CC3)ccc21 > 76.9 µM
Cc1ccc(S(=O)(=O)N(C)CC(=O)N2CCc3ccccc32)cc1 > 76.9 µM
Cc1cc(C(=O)NCCCn2ccnc2)cs1 > 76.9 µM
CCOC(=O)c1cccnc1SC(CC)C(=O)N1CCOCC1 (configuration not stated) > 76.9 µM
COc1ccc(C(C)=O)c(Oc2nc(CN3CCOCC3)nc3scc(-c4cccs4)c23)c1 > 76.9 µM
CN1CCN(C(=O)c2sc(=S)n(-c3ccccc3)c2N)CC1 > 76.9 µM
O=C(Nc1ccccc1)N1CC=C(c2ccc(F)cc2)CC1 > 76.9 µM
O=C(CCC1CCCCC1)N1CCN(Cc2ccc3c(c2)OCO3)CC1 > 76.9 µM
COC(=O)[C@H](CCSC)NC(=O)Nc1cc(C)ccc1C > 76.9 µM
O=C(Nc1sc2c(c1C(=O)NC1CCCCC1)CCC2)c1ccco1 > 76.9 µM
O=C(O)CCc1ccc(-c2cccs2)n1CC1CCCO1 (configuration not stated) > 76.9 µM
